According to the supplement of paper PMC3334620:
In all, about 33,000 sequences were measured (“E-score (-0.5 to 0.5)”: median about -0.017, highest 2% from about 0.3 on). The list shows a part of the results.

target: T1, Sut1 (UniProt P53032); assay: PBM E-score (8-mer binding enrichment) (E-score (-0.5 to 0.5)); higher = stronger / more preferred TF binding; most listed sequences are background and not binding sites; settings: protein concentration: 200 nM; construct: GST-full length
T1 sequence: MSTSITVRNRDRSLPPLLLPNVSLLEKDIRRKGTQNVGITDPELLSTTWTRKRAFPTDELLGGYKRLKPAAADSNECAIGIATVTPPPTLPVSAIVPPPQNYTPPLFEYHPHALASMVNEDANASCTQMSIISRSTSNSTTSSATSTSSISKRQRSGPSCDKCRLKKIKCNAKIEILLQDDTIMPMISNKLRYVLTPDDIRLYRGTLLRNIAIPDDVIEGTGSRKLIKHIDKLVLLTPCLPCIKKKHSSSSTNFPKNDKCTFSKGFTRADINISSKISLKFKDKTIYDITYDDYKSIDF
Method in brief: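 Each ungapped eight-base word and its reverse complement, pooled, received an E-score from the Universal PBM Analysis Suite. Underlying scans, normalised with masliner, recorded fluorescent anti-GST bound to GST-tagged yeast transcription factors. These were applied at about 100-200 nM to universal all-10-mer Agilent arrays double-stranded by primer extension.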

| Sequence | PBM E-score |
| --- | --- |
| CAAAGTAC | 0.0285 |
| AATTAAAC | 0.329 |
| GCAAGGAA | 0.0749 |
| AGGCTTAG | 0.00184 |
| GCGTCTAC | -0.204 |
| ACCCGTAT | -0.0177 |
| AGATTCTA | 0.108 |
| ATACTACG | -0.0705 |
| AGCGGGCG | -0.295 |
| CAGCCATC | -0.263 |
| GCAGGAGA | -0.0587 |
| ACCACTTA | 0.0137 |
| CAGGTCGG | -0.193 |
| CTTATTGA | 0.13 |
| GACCCAGC | -0.331 |
| CTATCCGC | -0.0219 |
| TCGCTGAA | 0.0804 |
| CGCACCAC | 0.0864 |
| CTACTTCA | 0.038 |
| AACGTGCG | -0.0575 |
| ATAAGTGG | 0.0787 |
| GCGGACTA | 0.404 |
| CGAATTAG | 0.196 |
| GGGTATAC | -0.111 |
| CACCTTCG | -0.12 |

| Sequence | PBM E-score |
| --- | --- |
| ATGTAGGC | -0.058 |
| ATACATTG | 0.15 |
| AGGCAACA | -0.252 |
| TCGCACAA | -0.0829 |
| AGGCGGAA | 0.12 |
| GGGCGGTA | -0.0548 |
| AATTACAC | 0.181 |
| ATCGTATA | 0.212 |
| CAAGTGCA | -0.214 |
| AAACCAAC | 0.025 |
| ATTATAGG | 0.102 |
| ATGGCGGC | 0.108 |
| ACTGACCA | -0.138 |
| CAATAAGG | 0.0818 |
| AAACCTAT | 0.123 |
| GCAATTAC | 0.088 |
| TAATCAAA | 0.19 |
| CCTCTACG | -0.173 |
| GCAGATCA | -0.124 |
| CCTCCGGC | 0.106 |
| ACCAGGAT | -0.049 |
| TCCTGACA | -0.077 |
| CTATATGA | 0.161 |
| ACACCAAT | 0.0647 |
| CGGTGTGC | -0.144 |

| Sequence | PBM E-score |
| --- | --- |
| ACGGCTTG | -0.24 |
| ATTCCTAG | -0.00718 |
| GGTTGAGA | -0.0204 |
| TAAAAAAA | 0.253 |
| ACTGTACA | -0.154 |
| AGCGTGTC | -0.148 |
| CACGCCGC | -0.0908 |
| CGCCGACA | -0.0995 |
| ACTTCTAC | 0.00924 |
| TATCTGGA | 0.0128 |
| AACGTGAG | -0.0804 |
| AAGGCAGG | -0.155 |
| CTATATAA | 0.158 |
| CAGCCAAC | -0.0365 |
| CGGACCCA | 0.234 |
| AGCGGTAT | 0.0737 |
| AATATTCT | 0.221 |
| CAGAACTG | 0.0389 |
| AGGTCAAT | 0.0541 |
| GTGCATCA | 0.0602 |
| GGCAGCTA | -0.095 |
| AGAGCGTC | -0.0757 |
| GGCGCTAC | -0.182 |
| AAAGGCGA | -0.148 |
| CGGATCGA | -0.145 |

| Sequence | PBM E-score |
| --- | --- |
| ACACGGTG | -0.0462 |
| ATTCAGGC | -0.142 |
| CCAACCCA | -0.254 |
| ACGACCAT | -0.137 |
| CCACGGTC | -0.275 |
| AAGTGGCC | -0.00917 |
| ATTGCGTA | -0.00313 |
| ATAGCTAT | 0.0458 |
| CATCCGCG | -0.0456 |
| AATGACGT | 0.031 |
| AAGTACTA | 0.201 |
| TGATCCAA | 0.135 |
| ACTATACA | 0.128 |
| TAATATGA | 0.315 |
| CGAGGGTA | -0.156 |
| ATAAGGAT | 0.116 |
| CGTAATGA | -3e-05 |
| CTTGAAGA | 0.0532 |
| ACAGCTTA | 0.0534 |
| CGGCATCA | -0.106 |
| GCTGGTAA | -0.104 |
| GTAAAACA | 0 |
| AGTAGTTA | 0.182 |
| CTCGAGAA | -0.132 |
| ATGCTAGG | -0.072 |

| Sequence | PBM E-score |
| --- | --- |
| CGCTATGA | 0.0878 |
| AGTCGGAT | 0.173 |
| ACCGCTAC | -0.18 |
| AGTCGCCC | -0.182 |
| CGAGCCCA | -0.321 |
| CGGCGTCC | -0.031 |
| CAATGAGC | -0.0381 |
| AAGTCATT | -0.00286 |
| AGAGGTAG | -0.0764 |
| TATAAAAA | 0.318 |
| AAGCCTAA | 0.15 |
| ATGCATGA | 0.128 |
| CTAGACTC | -0.0737 |
| CAATTGTG | 0.0225 |
| AAGTCTCC | -0.128 |
| CATGAGCA | -0.0355 |
| ATACCGTC | -0.0232 |
| AAACTCAT | 0.204 |
| AGCCACAC | -0.124 |
| CTGATACA | -0.0307 |
| CGACTACG | -0.0291 |
| CGCAGATC | -0.224 |
| CGAGTCAA | -0.0592 |
| TAAACTCA | 0.107 |
| CGGCGCCG | 0.221 |

| Sequence | PBM E-score |
| --- | --- |
| AGACATGC | -0.188 |
| AACTCTCC | 0.161 |
| CGAAACAG | 0.0566 |
| TGCGTGAA | 0.134 |
| AAGGGGTA | -0.214 |
| AACACCGA | 0.204 |
| GCTACCAC | -0.205 |
| CAGCTGTC | 0.0125 |
| AGGTGCAT | -0.136 |
| AATCTACT | 0.202 |
| GCATCGAA | 0.011 |
| GCATCACA | -0.0805 |
| GTCTTGCA | -0.0831 |
| AGCTCGCC | -0.16 |
| ATTCGTGG | -0.137 |
| CTGCGGGA | -0.288 |
| GCCTACAC | -0.194 |
| AGACCGTG | -0.103 |
| ACGTGAGC | -0.259 |
| GAATCCGC | -0.0771 |
| ACCCAGGG | -0.308 |
| TAACATCA | 0.171 |
| CCGACCGC | -0.2 |
| TAGGACGA | -0.0602 |
| GTCTGACA | 0.0529 |

| Sequence | PBM E-score |
| --- | --- |
| ACGCGTCA | -0.0969 |
| CGAATCCA | -0.00116 |
| ATTTAAGC | 0.173 |
| GCAGCCTA | -0.122 |
| GTGCATTA | 0.053 |
| TGTATACA | 0.255 |
| AGCATCTA | 0.0729 |
| GGCACCTA | -0.0802 |
| CACATCGG | -0.119 |
| AGTCGAGC | -0.205 |
| AGTAATTC | 0.307 |
| AAACATTG | 0.0467 |
| AGAGAATA | 0.147 |
| ACACCCAG | -0.255 |
| TCCCTTCA | -0.111 |
| AACATCGG | 0.0588 |
| CTATCCAA | 0.057 |
| AATAAGGG | -0.0871 |
| CTGTCCTC | -0.065 |
| ACGCTACG | -0.131 |
| GACGTAGC | -0.198 |
| CGTAAACA | 0.0673 |
